Results on 86 molecules are retold here after ChEMBL document CHEMBL4888484, “Replenishing the malaria drug discovery pipeline: Screening and hit evaluation of the MMV Hit Generation Library 1 (HGL1) against asexual blood stage Plasmodium falciparum ,using a nano luciferase reporter read-out” (2022).

Usually % Inhibition stands for the change of the read-out against control, counted positive when it falls.

Molecules are shown by their SMILES. Screen size: about 150,000 compounds; about 540 (0.36%) showed an effect of 50% or more. Some of the results follow.

This assay relates to Plasmodium falciparum. The assay can be described thus: Primary screen in NF54 nanoGlo assay, in single point, at 2uM, 72h; a lower Z score goes with more inhibition. The format is functional, Erythrocyte. The note with it: timepoint 72 hour.
For the molecule `Cc1nccn1-c1cncc(N2CC[S@+]([O-])C(C)(C)C2)n1`, the “% Inhibition” value is reported as -16% and the Z score worked out at 1.33.
Take `NC(=O)c1ccc([C@@H]2CCCN2C(=O)Cn2c(C3CC3)nc3ccccc32)s1`: the “% Inhibition” value was -2% and the Z score stood at 0.25.
As to `CCc1ccc(C(CO)NC(=O)C2COC(C)C2)cc1` (configuration not stated), the “% Inhibition” value is 29% and the Z score was -3.26.
The corresponding values for `COCCC(=O)N1C(C)CN(C)CC1C` (configuration not stated) are -1% and 0.08.
In the case of `CC(=O)c1cnc(NCCCc2csc(N)n2)nc1C`, the “% Inhibition” value was -20% and the Z score is recorded as 1.87.
`CN(C)C(=O)c1cccc(-c2ccc3[nH]ccc3c2)n1`: the “% Inhibition” value came to 7% and the Z score is -0.96.
The matching figures for `CN1CCCC1C1CCCN1C(=O)c1c[nH]nc1-c1ccncc1` (configuration not stated): 8% and -1.14.
With `CC(C)c1cc(NC[C@H](O)c2c[nH]cn2)ncn1`, the “% Inhibition” value is given as -5% and the Z score was 0.47.
In the case of `CCc1noc(CN(CC)Cc2cccc3[nH]ccc23)n1`, the “% Inhibition” value is -3% and the Z score was found to be 0.65.
Turning to `Cc1cc(C(=O)NCc2nccnc2-c2cccs2)no1`, the “% Inhibition” value is listed as -13% and the Z score was 2.43.
The corresponding values for `CC(C)c1scnc1C(=O)NCc1cccc(N)n1` are -8% and 1.06.
For the molecule `CN(C)c1ccc(NC(=O)Cc2cnn(-c3ccccc3)c2)cn1`, the “% Inhibition” value is -12% and the Z score was 1.6.
Consider `O=C(Nc1cccs1)N[C@H]1CCN(Cc2ccsc2)C1`, for which the “% Inhibition” value is -6% and the Z score was determined as 0.97.
Turning to `COc1ccnc(Cn2ccc3ncccc3c2=O)c1OC`, the “% Inhibition” value is on record as -10% and the Z score is given as 1.08.
The corresponding values for `CC(O)CC1COCCN1C(=O)NC1CCC(C)c2ccccc21` (configuration not stated) are -5% and 0.66.
Regarding `Cc1ccc(S(=O)(=O)NCC2(N(C)C)CCCC2)c(Br)c1`, the “% Inhibition” value was -1% and the Z score was 0.08.
`CCC1=NS(=O)(=O)c2cccnc2N1c1ccccc1`: the “% Inhibition” value is -12% and the Z score was found to be 1.18.
As for `COCC1CN(C(=O)[C@@H](N)Cc2ccccc2)CCO1` (some centres not stated), the “% Inhibition” value is given as -17% and the Z score turned out to be 2.52.
The corresponding values for `O=C(Cc1ccc(F)cc1Cl)NCCCC[C@H]1CCCO1` are -20% and 2.06.
With `C=CCOc1ccccc1CN1CCC2CCC(C1)N2` (configuration not stated), the “% Inhibition” value is reported as -2% and the Z score worked out at 0.18.
Regarding `CCC(NC(=O)c1ccc(=O)n(C)c1)C1CCCO1` (configuration not stated), the “% Inhibition” value came out at 0% and the Z score is 0.
`O=S(=O)(CCOC1CCOC1)NC1CCc2cc(F)ccc21` (configuration not stated): the “% Inhibition” value is -13% and the Z score was 1.61.
The corresponding values for `Cc1ccc(-c2csc(NC(=O)c3cccc(C(=O)Nc4nc(-c5ccc(C)cc5C)cs4)n3)n2)c(C)c1` are 40% and -5.21.
As to `Fc1cccc(-c2cc(N3CCNCC3)nc3ccccc23)c1`, the “% Inhibition” value is -3% and the Z score is 0.37.
Take `O=C(CC1CCCC1)Nc1nc(-c2cc(F)ccc2F)cs1`: the “% Inhibition” value is recorded as -11% and the Z score amounted to 1.08.
The corresponding values for `Cc1ccc(-c2noc(Cc3nc(-c4ccc5c(c4)OCO5)cs3)n2)cc1` are -13% and 1.25.
`O=S(=O)(N[C@@H](c1ccsc1)c1cccs1)c1cccc2nsnc12`: the “% Inhibition” value is 0% and the Z score is on record as -0.02.
The corresponding values for `CCOc1ccc([C@@H](CC(=O)N2CCN(CC)CC2)c2c[nH]c3ccccc23)cc1` are -5% and 0.61.
With `COc1cccc(C(NC2CCOC2)c2cc(F)ccc2OC)c1` (configuration not stated), the “% Inhibition” value is listed as -2% and the Z score is given as 0.25.
The corresponding values for `Fc1cccc(F)c1CC[C@H]1CCCNC1` are 6% and -1.27.
Regarding `CS(=O)(=O)N1CC(CN2CCCNc3ccccc32)C1`, the “% Inhibition” value is listed as -7% and the Z score turned out to be 1.11.
Turning to `O=C(N[C@H]1CCc2nnc(C3CC3)n2CC1)c1cc(C2CC2)[nH]n1`, the “% Inhibition” value is on record as -10% and the Z score is 1.5.
`CCOc1ncccc1CNC(=O)CCN1CCCCO1`: the “% Inhibition” value is -6% and the Z score was determined as 0.77.
The corresponding values for `Cc1n[nH]c2nc(-c3ccccc3)cc(C(=O)NCCc3ccc(S(N)(=O)=O)cc3)c12` are 29% and -3.29.
With `O=C(CCc1ccccc1)N1CCC[C@H]1C1CCNCC1`, the “% Inhibition” value is -18% and the Z score amounted to 2.83.
For the molecule `COc1ncccc1C(=O)N[C@H]1CCN(c2cnn(C)c2)C1`, the “% Inhibition” value was -11% and the Z score was 1.27.
As for `Cc1nc(C)c(-c2ccc(C(=O)NCCOCCO)cc2)s1`, the “% Inhibition” value is given as -5% and the Z score is recorded as 0.67.
The corresponding values for `NC(=O)C1(NC(=O)c2ccccc2OCC2CC2)CCOCC1` are -3% and 0.35.
`O=C(Cn1c(=O)c(Cl)cc2ccccc21)NC1CC1`: the “% Inhibition” value is given as -13% and the Z score was 2.48.
For the molecule `Cc1cccn2c(Cn3cc(-c4ccc(CO)o4)nn3)cnc12`, the “% Inhibition” value is recorded as -14% and the Z score is given as 1.93.
With `CC(=O)N1CCC[C@H](CNc2ccc(Cl)c(C)n2)C1`, the “% Inhibition” value amounted to 1% and the Z score was -0.21.
On to `O=C(N[C@H]1CCOC1)N1CC(c2nc3ccccc3[nH]2)C1`, for which the “% Inhibition” value came to 5% and the Z score is recorded as -1.
As to `O=C(C1=CCCCO1)N1CCn2c(nnc2C(F)(F)F)C1`, the “% Inhibition” value is reported as -20% and the Z score was 2.07.
Consider `Cc1ccc(-c2csc([C@@H]3CCCO3)n2)s1`, for which the “% Inhibition” value was -6% and the Z score worked out at 0.8.
Consider `CC1CCC(c2noc([C@H]3CCO[C@@H]3c3cncc(Br)c3)n2)CC1` (some centres not stated), for which the “% Inhibition” value amounted to 39% and the Z score was -5.89.
The matching figures for `COCCN1CCC(CN(Cc2ccc(Cl)s2)C[C@H]2CCCO2)CC1`: -7% and 0.76.
Regarding `Nc1nc(-c2ccc(F)cc2)ncc1C(=O)NCc1ccccc1Cl`, the “% Inhibition” value is reported as 31% and the Z score was -3.5.
`CC(C)=CCN1C(=O)N[C@@](CCCc2ccccc2)(C2CCNCC2)C1=O`: the “% Inhibition” value stood at 8% and the Z score is -1.25.
In the case of `O=S(=O)([C@H]1CCCOC1)N1CCC(Cc2ccccc2)CC1`, the “% Inhibition” value is reported as -4% and the Z score was 0.53.
For the molecule `O=C(c1ccc(F)cc1)N1CCC2(CC1)C[C@@H](N1CCCCC1)CCO2`, the “% Inhibition” value was -13% and the Z score was 1.67.
Turning to `CCCC1(C2CCN(C(=O)Cc3ccc4c(c3)OCO4)CC2)NC(=O)N(CCC2CCCN2C)C1=O` (configuration not stated), the “% Inhibition” value is listed as -8% and the Z score was 1.11.
Consider `CN1C[C@@H](C(=O)Nc2ccc3c(c2)COC3=O)CC1=O`, for which the “% Inhibition” value is reported as -3% and the Z score was found to be 0.44.
As for `Cc1ccc(C)c(Cn2cnc3nc4c(cc3c2=O)C[C@@H](C)CC4)c1`, the “% Inhibition” value is -11% and the Z score was 1.41.
On to `CC(C)(O)C(C)(C)NS(=O)(=O)c1c(Cl)cc(Br)cc1Cl`, for which the “% Inhibition” value is -1% and the Z score is on record as 0.08.
For the molecule `O=C(c1cccc(C(F)(F)F)c1)N1CCC(N2C(=O)COCC2=O)CC1`, the “% Inhibition” value is 12% and the Z score is listed as -1.55.
Take `CN1C(=O)CC[C@@H]1C(=O)Nc1cc2c(cn1)CCCC2`: the “% Inhibition” value was determined as 0% and the Z score is on record as -0.04.
`CCNC(=O)N1CCCC[C@H]1c1noc(COc2ccc(C)cc2)n1`: the “% Inhibition” value is given as -14% and the Z score is 1.7.
Turning to `CCn1c(CC2CCNCC2)nn(Cc2nc(-c3ccc(C)cc3)oc2C)c1=O`, the “% Inhibition” value is -16% and the Z score worked out at 1.52.
In the case of `O=C(NC1CC=CCC1)NC1C2CCOC2C12CCCC2` (configuration not stated), the “% Inhibition” value is reported as -19% and the Z score is reported as 1.66.
With `O=C(Cc1ccsc1)N(CCn1ccc(C(F)(F)F)n1)C1CCCC1`, the “% Inhibition” value is recorded as -15% and the Z score turned out to be 3.07.
With `CC(C)n1c(=O)[nH]c2cc(C(=O)N3CCOC[C@@H]3C)ccc2c1=O`, the “% Inhibition” value was -7% and the Z score was found to be 0.96.
The matching figures for `Cc1cccc(CNC(=O)c2cn3c(n2)COCC3)c1`: -10% and 1.68.
In the case of `Cc1nc(-c2c[nH]nc2-c2ccc(OCc3ccc(Br)cc3)cc2O)cs1`, the “% Inhibition” value is reported as 1% and the Z score is listed as -0.12.
As to `O=S1(=O)CC[C@H](Cn2cc(-c3cc(CN4CCCC4)cs3)nn2)C1`, the “% Inhibition” value is recorded as -7% and the Z score is reported as 1.2.
As to `CCn1ccc2ccc(CN3CCOC[C@@H]3CO)cc21`, the “% Inhibition” value was 6% and the Z score is listed as -0.93.
Regarding `COc1ccccc1C(=O)Nc1ccc2c(c1)CN(Cc1ccc(F)cc1)C(=O)[C@H](C)O2`, the “% Inhibition” value stood at 0% and the Z score is 0.05.
Turning to `Cc1noc(C2CCN([C@@H](C(=O)O)c3cccc(Cl)c3)CC2)n1`, the “% Inhibition” value is -1% and the Z score worked out at 0.21.
With `Cc1ccc(CN(C)C(=O)C2(Cc3ccc(F)cc3)CCOCC2)o1`, the “% Inhibition” value is listed as -11% and the Z score was 1.52.
Consider `Cc1nc[nH]c1C(=O)N(CCc1ccccc1)C1CCN(C)CC1`, for which the “% Inhibition” value was -3% and the Z score worked out at 0.43.
The matching figures for `O=C(c1ccn(C(=O)Nc2ccccc2)n1)N1CCOCC1`: -10% and 1.34.
On to `Cn1nccc1CCNS(=O)(=O)c1c[nH]c2cccc(F)c12`, for which the “% Inhibition” value was 34% and the Z score is reported as -4.66.
The matching figures for `CN1CCN(CC(=O)Nc2cc(F)ccc2F)CCC1=O`: -8% and 1.64.
As for `COc1ccccc1C1(CNC(=O)N[C@H]2CCO[C@@H]2c2nccn2C)CCC1`, the “% Inhibition” value is 35% and the Z score is -3.91.
The matching figures for `COC1C(C)C(NC(=O)CCc2ccccc2C(=O)O)C1(C)C` (configuration not stated): -7% and 0.86.
As to `CN(C)C(=O)[C@@H]1CN(Cc2ccn(C)n2)CCN1Cc1ccn(C)n1`, the “% Inhibition” value amounted to 0% and the Z score was -0.03.
For `CC1CN(Cc2ccccc2)CCC1N(C)C(=O)Nc1cn[nH]c1` (configuration not stated), the “% Inhibition” value was -12% and the Z score worked out at 1.37.
The matching figures for `CC(C)[C@H](O)C1CCN(Cc2nc(-c3cccs3)no2)CC1`: -15% and 2.38.
As to `COc1ccccc1C(=O)N1c2ncnn2C2(CCCCC2)[C@@H]2CCCC[C@@H]21`, the “% Inhibition” value is reported as -14% and the Z score worked out at 1.25.
In the case of `Cc1ccc(C(=O)NC[C@@H](O)CO)n1C(F)F`, the “% Inhibition” value is reported as -5% and the Z score stood at 0.93.
On to `CCn1ccc(C(=O)N2C[C@H]3CC[C@@H](C2)N(CC=C(C)C)C3=O)cc1=O`, for which the “% Inhibition” value came to 6% and the Z score is listed as -1.14.
For the molecule `CCC[C@H](C)C(=O)NCCC(=O)N1CCCCCC1`, the “% Inhibition” value came to 3% and the Z score was -0.37.
Take `COc1ccc(C(OCC2OC(n3ccc(=O)[nH]c3=O)C(OC3CCCCO3)C2O)(c2ccccc2)c2ccc(OC)cc2)cc1` (configuration not stated): the “% Inhibition” value is recorded as -21% and the Z score was 2.68.
Regarding `Cc1cnc(NC(=O)N[C@H]2CCS(=O)(=O)[C@H]2C)s1`, the “% Inhibition” value worked out at 2% and the Z score is listed as -0.29.
Consider `O=C(Nc1ccc(N2C(=O)CC3(CCCCCC3)C2=O)cc1)c1ccco1`, for which the “% Inhibition” value is listed as -4% and the Z score is reported as 0.43.
In the case of `Cc1nnc(NCc2ccc3c(c2)OCCO3)c(C#N)c1C`, the “% Inhibition” value was -16% and the Z score worked out at 3.18.
As to `CCCNc1ncc([C@H]2CC(=O)Nc3nn4c(C)cc(C)nc4c32)cn1`, the “% Inhibition” value was -13% and the Z score was 2.42.
